Measured values as given in paper PMC3893891 (Journal of biomolecular screening, 2012).

Molecular target: T1, Eya2 ED (Homo sapiens, UniProt O00167)
T1 sequence (O00167 253-538): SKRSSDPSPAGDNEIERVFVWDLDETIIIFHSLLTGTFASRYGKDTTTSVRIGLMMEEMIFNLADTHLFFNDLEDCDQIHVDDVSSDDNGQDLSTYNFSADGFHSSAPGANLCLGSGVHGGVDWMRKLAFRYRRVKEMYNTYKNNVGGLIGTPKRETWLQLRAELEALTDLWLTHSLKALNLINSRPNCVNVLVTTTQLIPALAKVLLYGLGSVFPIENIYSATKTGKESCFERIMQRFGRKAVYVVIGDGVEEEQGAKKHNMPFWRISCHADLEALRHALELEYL
Conditions: OMFP substrate; for IC50: read-out: IC50, inhibition of Eya2 ED phosphatase activity

IC50 (common phosphatase inhibitors) | inhibition of Eya2 ED phosphatase activity (in words) | Structure (SMILES) | other results
6600 µM |  | [F-].[Na+] [NaF] | 
 | do not show inhibition | N[C@@H](Cc1ccccc1)C(=O)O [L-phenylalanine] | 
1800 µM |  | [Na+].[Na+].[Na+].[O]=[V]([O-])([O-])[O-] [Na3VO4] | 
 | do not show inhibition | c1cnc2c(c1)ccc1cccnc12 [1,10-phenanthroline] | 
 |  | O=C(O)CN(CCOCCOCCN(CC(=O)O)CC(=O)O)CC(=O)O [EGTA] | IC50: 65 µM

Read-outs that look alike come from different tables or passages of the source.
